# Out of some 420,000 compounds screened, about 64,000 (15%) were called active. Inconclusive means that the source gave no clear call. Such entries were picked first, then a sample of the others. Calls come from the whole dose curve; as a rule, active = well fitted inhibition curve with a large enough effect; inconclusive = small, poorly fitted or top-dose-only effect; inactive = flat fitted curve, though single readings scatter. No potency is given beside an inconclusive call; the fits are too rough.
# Assay: qHTS for Inhibitors of human tyrosyl-DNA phosphodiesterase 1 (TDP1): qHTS in cells in absence of CPT; note: nearly all actives have a fitted effect of over 55% in size
# Conditions: DT40 Tdp1-/- hTDP1 cells, no CPT, ATP luminescence, 48 h; activity change, negative = growth inhibition: at 46.2 µM (top of the series) unless noted
# How it was run: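 Stably hTDP1-transfected Tdp1-null chicken DT40 cells were treated with library compounds minus camptothecin and grown for at least 48 hr at 37 °C, after which cellular ATP was quantified by luminescence.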
# % is set by controls: 0 for no effect and ±100 for the full control effect; potency is the fitted concentration of half-maximal effect; tags give direction and shape of the fitted curve.
SMILES,Potency,"activity change, negative = growth inhibition"
CC(C)OC(=O)c1ccc(N2C(=O)C3CC=CCC3C2=O)cc1 (centres undefined),inactive,
CCCN(CC(=O)Nc1ccccc1OC)CC(=O)c1c(N)n(Cc2ccccc2)c(=O)n(C)c1=O,"inconclusive [inhibitor, single point]",
O=C(c1ccco1)N1CCC2(CC1)CN(c1cccc(-c3ccccc3)c1)C2,active: 13 µM,
COc1cc(Cl)ccc1OCc1cc(C(=O)N2C[C@@H]3CCC[C@H]2C3)no1,"inconclusive [inhibitor, single point]",
CCOC(=O)c1cc(-c2csc(N/N=C/c3ccccc3Cl)n2)on1,"inconclusive [inhibitor, partial curve, poor fit]",
Cc1ccc(N(C(=O)CCCC(=O)Nc2ccccn2)C(C(=O)NC2CCCC2)c2ccc(O)cc2)cc1C (centres undefined),"inconclusive [inhibitor, partial curve]",
COC(=O)c1c(-c2ccc(OC)cc2)oc2ccccc12,inactive,
Fc1cc2[nH]cnc2cc1Cl,active: 1.84 µM,
O=C(Nc1nc2c(s1)CN(Cc1ccccc1)CC2)c1cccc(S(=O)(=O)N2CCc3ccccc32)c1,"inconclusive [inhibitor, single point]",
Nc1nn(S(=O)(=O)c2ccccc2)cc1-c1ccc([N+](=O)[O-])cc1,"inconclusive [inhibitor, partial curve, poor fit]",
O=C(CCCn1c(SCc2cccc([N+](=O)[O-])c2)nc2ccccc2c1=O)NCC1CCCO1 (centres undefined),active: 23.1 µM,
COc1ccc(Cn2c(=O)c3cccnc3n(Cc3cccc(F)c3)c2=O)cc1,"inconclusive [inhibitor, single point]",
CCOC(=O)c1c(C)oc2ncnc(Nc3ccc(OC)c(OC)c3)c12,"inconclusive [inhibitor, partial curve]",
c1nc(N2CCN(Cc3ccc4c(c3)OCO4)CC2)c2[nH]cnc2n1,"inconclusive [inhibitor, partial curve]",
COc1ccc2sc(NC(=O)NC(=O)c3c(Cl)cccc3Cl)nc2c1,"inconclusive [inhibitor, partial curve]",
CCC(C(=O)OCC(=O)Nc1c(C)n(C)n(-c2ccccc2)c1=O)c1ccccc1 (centres undefined),inactive,
CCOC(=O)C1=C(C)c2ccccc2OC1(CC)C(=O)OCC (centres undefined),"inconclusive [inhibitor, single point]",
COc1cccc(-c2nc(S(=O)(=O)c3ccc(C)cc3)c(N3CCCCC3)o2)c1,active: 18.4 µM,
CCOC(=O)c1ccc(N2CCCCC2)c(NS(=O)(=O)c2cccc(C(F)(F)F)c2)c1,"inconclusive [inhibitor, single point]",
COc1cccc(C(=O)/C=C/Nc2ccc(S(=O)(=O)Nc3cnc4ccccc4n3)cc2)c1,"inconclusive [inhibitor, partial curve]",
CN(C)c1nc2ncn(Cc3ccccc3)c2c(=O)[nH]1,inactive,
CCN(Cc1ccccc1)C(=O)c1ccc(C(=O)N(CC)Cc2ccccc2)cc1,"inconclusive [inhibitor, partial curve]",
O=C(CNC(c1ccccc1)c1ccccc1)Nc1ccccc1F,"inconclusive [inhibitor, single point]",

SMILES,Potency,"activity change, negative = growth inhibition"
CCCCCCN1C[C@H](n2cc(-c3ccc(F)cc3)nn2)[C@@H](O)C[C@@H]1c1ccc(OC)cc1,"inconclusive [inhibitor, partial curve]",
Clc1cccc(Cc2c(-c3ccccc3)nc3ccc(Cl)cn23)c1,"inconclusive [inhibitor, single point]",
Cc1ccc(CN2C(=O)CCSc3ccc(Cl)cc32)cc1,"inconclusive [inhibitor, full curve]",
O=C1Nc2ccc(S(=O)(=O)N3CCCC3)c3ccc(S(=O)(=O)N4CCCC4)c1c23,"inconclusive [inhibitor, single point]",
CC1CCCCC12NC(=O)N(CC(=O)N1CCN(S(=O)(=O)Cc3ccccc3)CC1)C2=O (centres undefined),inactive,
CC(/C=C/c1ccccc1)=N\NC(=O)c1ccc2c(c1)OCCO2,"inconclusive [inhibitor, partial curve]",
S=C(Nc1ccc2[nH]ccc2c1)NC1CCCCC1,inactive,
CCOc1ccc(-c2nc(CN(Cc3ccccc3)C[C@@H]3CCC(=O)N3)c(C)o2)cc1,active: 20.6 µM,
CC(=O)c1c(C)[nH]c2ccc(OCC(O)CNCCc3ccccc3)cc12 (centres undefined),active: 15.8 µM,
COc1ccc(CC2S/C(=N/N=C/c3ccc(O)cc3)NC2=O)cc1 (centres undefined),inactive,
O=c1c2[nH]c3ccc(F)cc3c2nc2n1CCCS2,inactive,
Cn1cc([C@]2(O)C(=O)Nc3ccc(OC(F)(F)F)cc32)c2ccccc21,"inconclusive [inhibitor, single point]",
CCCNC(=O)CCc1c(C)nc2c(c(C)nn2-c2ccc(C)cc2)c1C,"inconclusive [inhibitor, single point]",
O=C(NC1CCCCC1)N1CCC(n2c(=O)[nH]c3ccccc32)CC1,inactive,
O=C(O)CN1C(=O)/C(=C/c2ccc(N3CCCCC3)o2)SC1=S,active: 23.1 µM,
Cc1ccc(N=C2NC(=O)/C(=C/C=C/c3ccco3)S2)cc1C,"inconclusive [inhibitor, single point]",
CCCCN(C(=O)c1nn(C)c(=O)c2ccccc12)c1c(N)n(CC(C)C)c(=O)[nH]c1=O,inactive,
Cc1cccc(C)c1NC(=O)c1sc(-n2nc(C)c(Cc3ccccc3)c2C)nc1C,"inconclusive [inhibitor, full curve]",
COc1ccc(CNc2cc(-c3ccccc3CN(C)C)ncn2)c(OC)c1,"inconclusive [inhibitor, partial curve]",
CCC(COC)NC(=O)c1cnn(-c2ncc3c(n2)-c2ccccc2CC3)c1C (centres undefined),"inconclusive [inhibitor, single point]",
Cc1cc(C(=O)OCC(=O)NCc2ccc3c(c2)OCO3)c2ccccc2n1,,inconclusive: -33.4% [inhibitor]
O=C(CSc1nnc(-c2ccc3c(c2)OCO3)o1)Nc1ncc(C(F)(F)F)cc1Cl,active: 16.4 µM,
Cc1cc(OCC(=O)N(Cc2ccc(N(C)C)cc2)CC2CCCO2)ccc1Cl (centres undefined),inactive,

SMILES,Potency,"activity change, negative = growth inhibition"
Oc1cc(O)cc(-c2cc3ccc(O)cc3o2)c1,"inconclusive [inhibitor, single point]",
COC(=O)c1c(NC(=O)CC2SCC(C(=O)OC)NC2=O)sc2c1CCCC2 (centres undefined),inactive,
Cc1cc(C)c(S(N)(=O)=O)c(C)c1N(C)S(=O)(=O)c1ccc(Cl)cc1,"inconclusive [inhibitor, single point]",
OC(c1ccc(Cl)cc1)c1nccc2ccccc12 (centres undefined),"inconclusive [inhibitor, full curve]",
COc1ccccc1Nc1nc(N(C)c2ccccc2)nc(N)c1[N+](=O)[O-],,inconclusive: -8.83% [inhibitor]
COc1ccc(S(=O)(=O)N2CCN(CC(=O)c3c(N)n(C)c(=O)n(C)c3=O)CC2)cc1OC,inactive,
CC(C)Oc1ccc(C(=O)N(Cc2ccco2)Cc2cccs2)cc1,"inconclusive [inhibitor, single point]",
CCN(Cc1ccccc1)C(c1cc2cc(C)cc(C)c2[nH]c1=O)c1nnnn1CCOC (centres undefined),"inconclusive [inhibitor, single point]",
CC1CCN(CC(=O)Nc2ccc(S(=O)(=O)N3CCC(C)CC3)cc2)CC1,"inconclusive [inhibitor, single point]",
CC(=O)Nc1cccc2cc(S(=O)(=O)O)ccc12,inactive,
CCOC(=O)CN1CCC(c2cc(-c3ccc(Cl)cc3)n[nH]2)CC1,"inconclusive [inhibitor, single point]",
COc1cccc(CN2C(=O)C3(C(C#N)=C(N)OC4=C3C(=O)CCC4)c3ccccc32)c1 (centres undefined),active: 0.92 µM,
COc1ccc(/C=N/Nc2ccc([N+](=O)[O-])cc2)cc1O,"inconclusive [inhibitor, single point]",
CCOC(=O)c1c2c3c(cccc3n(C)c1=O)C(=O)c1ccccc1-2,"inconclusive [inhibitor, single point]",
CN(C)c1cccc(C(=O)N2CCC(n3nccc3NC(=O)C3CCOC3)CC2)c1 (centres undefined),inactive,
CC1(C)Cc2nc(-c3ccccc3)nc(SCC(O)CO)c2CO1 (centres undefined),"inconclusive [inhibitor, partial curve]",
Cc1cc(F)ccc1S(=O)(=O)Nc1ccc(C(=O)N2CCCCC2)cc1,"inconclusive [inhibitor, partial curve]",
CC(C)c1ccc2oc(-c3ccc(N)cc3)nc2c1,"inconclusive [inhibitor, single point]",
COc1ccc(-c2cc3nc(C)c(CCC(=O)NC4CCCCC4)c(C)n3n2)c(OC)c1,"inconclusive [inhibitor, single point]",
Cc1ccc(/C=C/C(=O)OCC(=O)NCc2ccccc2)o1,inactive,
Cc1cccc(NCc2ccc(Br)cc2)n1,"inconclusive [inhibitor, partial curve]",
CCCCC1CC2=C(C(=O)OC(C)(C)O2)C(c2cccc3ccccc23)O1 (centres undefined),active: 23.1 µM,
CCc1ccc(-n2nc(C)c3c(C)cc(=O)n(CC(=O)NCc4ccc(C)cc4)c32)cc1,"inconclusive [inhibitor, partial curve]",
